The results in this text go back to the supplement of paper PMC9446081.

About 220 (0.56%) of roughly 39,000 compounds showed activity. This is one part of the list.
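Note: static incubation at 37 °C against the wild-type strain, values averaged over two biological replicates.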

The test system of the assay is Escherichia coli K-12 BW25113. The assay can be described thus: relative growth (OD600 normalised to plate interquartile mean) (fraction); higher = less growth inhibition, active = 0.2 or less. The settings on record: 50 µM; LB; incubation time: overnight (16-24 h).
For `C[C@@H]1CCCCO[C@@H](CN(C)C(=O)Nc2ccc(F)cc2)[C@H](C)CN([C@@H](C)CO)C(=O)c2cc(NS(=O)(=O)c3ccccc3)ccc2O1`, the relative growth is inactive: 1.01.

On to `COc1ccc(S(=O)(=O)Nc2ccc3c(c2)C(=O)N([C@H](C)CO)C[C@@H](C)[C@H](CN(C)Cc2ccccc2)OCCCC[C@H](C)O3)cc1`, for which the relative growth is inactive: 0.989.

As for `C[C@@H]1CN([C@H](C)CO)C(=O)Cc2cc(NS(C)(=O)=O)ccc2O[C@@H]1CN(C)Cc1ccc2c(c1)OCO2`, the relative growth is inactive: 0.992.

On to `CCOC(=O)Cn1cccc2oc(=O)nc1-2`, for which the relative growth was inactive: 0.98.

Consider `Cc1ccc(S(=O)(=O)Nc2ccc3c(c2)C(=O)N([C@H](C)CO)C[C@H](C)[C@H](CN(C)Cc2ccc(Cl)c(Cl)c2)OCCCC[C@H](C)O3)cc1`, for which the relative growth is inactive: 0.838.

On to `C[C@@H]1CN([C@H](C)CO)C(=O)c2cc(NC(=O)Nc3ccc(F)cc3)ccc2O[C@@H]1CN(C)Cc1ccc(Oc2ccccc2)cc1`, for which the relative growth is inactive: 1.03.

`O=C(C[C@@H]1CC=CCC[C@@H](Cc2ccc(F)cc2)C(=O)OC[C@H](Cc2c[nH]c3ccccc23)NC1=O)N[C@@H](CO)Cc1ccccc1`: the relative growth was inactive: 0.958.

In the case of `Cc1cc(C(=O)Nc2cccc3c2O[C@H](CN(C)C(=O)Nc2ccccc2)[C@H](C)CN([C@@H](C)CO)C3=O)n(C)n1`, the relative growth is inactive: 1.03.

For the molecule `C[C@@H]1CN([C@H](C)CO)C(=O)c2cccc(NS(=O)(=O)c3cn(C)cn3)c2O[C@H]1CN(C)Cc1ccc2c(c1)OCO2`, the relative growth is inactive: 0.994.

For `CCCNC(=O)N1C[C@@H](O)COC[C@H]2O[C@@H](CC(=O)N3CCN(C)CC3)CC[C@@H]21`, the relative growth was inactive: 1.02.

Turning to `Cc1noc(C)c1NC(=O)N[C@H]1C=C[C@H](CC(=O)NCCCN(C)C)O[C@@H]1CO`, the relative growth was inactive: 0.995.

As to `CC(=O)c1ccc(OCc2c(-c3ccccc3)nnn2CC(=O)NS(=O)(=O)c2ccc(F)cc2)cc1`, the relative growth is inactive: 1.02.

Turning to `Cc1cc(C(=O)Nc2cccc3c2O[C@H](CN(C)Cc2ccncc2)[C@@H](C)CN([C@H](C)CO)C3=O)n(C)n1`, the relative growth was inactive: 0.953.

In the case of `COc1cccc(C#Cc2cnc3c(c2)C(=O)N([C@H](C)CO)C[C@@H](C)[C@@H](CN(C)C(=O)C2CCC2)O3)c1`, the relative growth is inactive: 0.925.

Consider `O=C(C[C@H]1CC[C@H]2NC[C@H](O)COC[C@@H]2O1)NCCN1CCCC1`, for which the relative growth was inactive: 0.996.

For `CO[C@H](CN(C)S(=O)(=O)c1ccc(F)cc1)[C@@H](C)CN([C@H](C)CO)S(=O)(=O)c1cccc(Cl)c1`, the relative growth is inactive: 0.928.

`Cc1noc(C)c1NC(=O)Nc1cccc2c1O[C@H](CN(C)Cc1ccc(Cl)c(Cl)c1)[C@H](C)CN([C@H](C)CO)C2=O`: the relative growth was inactive: 0.98.
